Assay results reported in the BET-seq Pho4 binding data (Le et al. 2018).
This is one part of the list. The energies were worked out here from pooled read counts, against the library average; single values are noisy.

What follows are sequences tested against T1, Pho4 (S. cerevisiae) (UniProt P07270) (assay: relative binding free energy (BET-seq); higher = weaker binding). Conditions: reference: library average.
T1 sequence: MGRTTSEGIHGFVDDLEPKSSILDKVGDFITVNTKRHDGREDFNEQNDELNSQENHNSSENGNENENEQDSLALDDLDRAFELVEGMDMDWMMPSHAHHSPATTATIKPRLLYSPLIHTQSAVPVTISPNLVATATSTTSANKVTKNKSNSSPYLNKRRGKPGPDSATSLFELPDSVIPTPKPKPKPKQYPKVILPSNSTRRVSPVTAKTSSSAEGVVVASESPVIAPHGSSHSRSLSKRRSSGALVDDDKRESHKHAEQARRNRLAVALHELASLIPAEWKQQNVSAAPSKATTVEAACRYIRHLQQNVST

| Sequence | relative binding free energy [kcal/mol] |
| --- | --- |
| CGTGTCACGTGCAAGT | 0.13 |
| TTGGGCACGTGTGCCT | -0.04 |
| TTTGTCACGTGCTTAA | 0.17 |
| GGCTGCACGTGTGGAA | 0.32 |
| TGTGGCACGTGATTAC | 0.1 |
| GGCGTCACGTGGCTTG | 0.18 |
| CGATGCACGTGTTGGG | -0.15 |
| TTATGCACGTGACTGG | 0.03 |
| TAAGGCACGTGCGTAA | -0.09 |
| CTTGGCACGTGGGGGC | -0.3 |
| AATGGCACGTGACTGT | -0.06 |
| CGAGCCACGTGGGGAG | -0.07 |
| TAAAGCACGTGGCGGT | -0.16 |
| CGTGTCACGTGAGTGG | 0.27 |
| GGGGTCACGTGTTATG | 0.34 |
| CGGGACACGTGTTGTG | -0.05 |
| CTGTGCACGTGGTGGA | 0.01 |
| GTGGGCACGTGTGGGG | 0 |
| TGTAACACGTGTTGAT | -0.01 |
| AGTATCACGTGTTGGC | 0.15 |
| GGGGGCACGTGGGTGT | -0.12 |

| Sequence | relative binding free energy [kcal/mol] |
| --- | --- |
| TGGGCCACGTGGGCAT | -0.2 |
| GAATTCACGTGTCGGT | 0.28 |
| CTGGGCACGTGTGTTG | -0.04 |
| AGATGCACGTGAAGGA | 0.29 |
| TGAGACACGTGGTTTG | -0.02 |
| GGGGACACGTGAGAGA | 0.33 |
| TGAAACACGTGGCGGT | 0.03 |
| TCGGGCACGTGTTGTC | -0.02 |
| GGAGACACGTGGTAGA | 0.01 |
| AGGTACACGTGCGATG | 0.14 |
| AATATCACGTGATGGA | 0.25 |
| GCTGACACGTGTTTGT | -0.06 |
| GGAGGCACGTGAGTTG | 0.18 |
| AGTTTCACGTGAGGTA | 0.27 |
| GTTAGCACGTGTAGCT | -0.01 |
| GTTCGCACGTGAGTTG | 0.1 |
| GTGGACACGTGAACGT | 0.29 |
| GAGTTCACGTGCTGAG | 0.31 |
| TCGTTCACGTGGGAGT | 0.13 |
| TTAGCCACGTGTTTTG | 0.02 |
| TAAATCACGTGTAGGA | 0.17 |

| Sequence | relative binding free energy [kcal/mol] |
| --- | --- |
| TCAGGCACGTGATTTT | 0.03 |
| ATAAACACGTGGGTAA | 0 |
| TGATGCACGTGGGCTG | -0.26 |
| GGCGTCACGTGGAGTA | 0.08 |
| CTGTACACGTGGTAGG | -0.01 |
| AGGGTCACGTGCTGAA | 0.11 |
| TTAAGCACGTGGGGCT | -0.15 |
| GGAGTCACGTGTTAGA | 0.25 |
| GTCAACACGTGGTCGG | -0.02 |
| TGTGGCACGTGGGATG | -0.22 |
| ACGTGCACGTGTGGAG | 0.04 |
| GGGTGCACGTGCTAAG | -0.05 |
| TGCTACACGTGGGGGC | -0.08 |
| AGTATCACGTGTATGA | 0.21 |
| TTTAACACGTGGGGTC | -0.05 |
| TAGGGCACGTGGGAAA | -0.12 |
| TTTTTCACGTGACAGG | 0.28 |
| GTAAGCACGTGAAGGG | 0.23 |
| AATCGCACGTGTAGGG | -0.02 |
| GGGGGCACGTGCAAGC | -0.11 |
| AACAGCACGTGGTGTG | -0.18 |
